# From article PMC7819943, “Rice protein-binding microarrays: a tool to detect cis-acting elements near promoter regions in rice”
# The list shows a part of the results.
# Target: T1, OsWOX13 (Oryza sativa, UniProt Q5QMM3 1-267)
# T1 sequence: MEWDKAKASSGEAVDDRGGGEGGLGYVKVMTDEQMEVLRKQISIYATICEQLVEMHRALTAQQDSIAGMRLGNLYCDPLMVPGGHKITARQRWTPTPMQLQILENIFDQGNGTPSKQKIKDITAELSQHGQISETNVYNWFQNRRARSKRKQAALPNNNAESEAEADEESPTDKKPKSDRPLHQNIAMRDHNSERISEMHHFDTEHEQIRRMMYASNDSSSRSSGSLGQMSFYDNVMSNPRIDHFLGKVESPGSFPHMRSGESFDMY
# Experiment: protein-binding microarray (RPBM); PBS, 2% BSA, 51.3 ng/ul salmon testes DNA, 50 uM zinc acetate, 200 nM TF, 25 C, 1 h; high values mean tight binding
# Settings: protein: recombinant; tags: N-terminal polyhistidine and DsRed monomer fusion (pET32a); label: CyDye5-dUTP incorporated in the synthesized complementary strand; 3' TTTTT single-stranded linker to array surface; dsDNA, one strand shown
# Procedure, shortened: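 For the binding signal, per-feature fluorescence intensity was read in arbitrary units on an Axon 4000B scanner. Before scanning, a 2% BSA-blocked custom Agilent array made double-stranded with Cy5-dUTP was washed after 1 h at 25 °C with 200 nM protein and 50 µM zinc acetate. The proteins were Ni–NTA-purified transcription factors with N-terminal polyhistidine and DsRed fusions, expressed in E. coli BL21-CodonPlus.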
row,Sequence,binding signal
1,CTTGACTGCACATATGCAAAGATATTTTCTACAGAAGTATCGGAGTCACCTAGTGCAG,6610 fluorescence intensity (a.u.)
2,ATGTTAAATCACTGTCATTGGACACAAGCGGATCGAGCCGCGGAGTCACCTAGTGCAG,4060 fluorescence intensity (a.u.)
3,GCACACTAATAGATGCCATTCTTTTCTCTAATTATGCTCTCGGAGTCACCTAGTGCAG,8160 fluorescence intensity (a.u.)
4,CTGATTTGTTCTGTCTTGCTAAGATTAGGGACGATGATTTCGGAGTCACCTAGTGCAG,14300 fluorescence intensity (a.u.)
5,ACTTTGATAGAAGTCAAATTATTTCAAGTTTAACTAAGTTCGGAGTCACCTAGTGCAG,23500 fluorescence intensity (a.u.)
6,AGGGTAATTTATCCGGTTTCAATAGTTTAGAGTATCAAATCGGAGTCACCTAGTGCAG,5120 fluorescence intensity (a.u.)
7,GATCCAAACTCTTAACCTCCAATCAAATCTAACTCGCTAACGGAGTCACCTAGTGCAG,4100 fluorescence intensity (a.u.)
8,AAATCCCCTCTGATTAGAAAGAGAGAGTGAAAGCGAGCCACGGAGTCACCTAGTGCAG,3200 fluorescence intensity (a.u.)
9,TGTGCTAATTTCAGTCTGATGTGGTCCACAGGCCAACACCCGGAGTCACCTAGTGCAG,13000 fluorescence intensity (a.u.)
10,AGGCGATAATCCTAATTTTGAATGGAAACACTGCAGGCGACGGAGTCACCTAGTGCAG,5040 fluorescence intensity (a.u.)
11,CACTATAATTAAACAAACAAACTTCAAATTCAAATTCAGCCGGAGTCACCTAGTGCAG,16800 fluorescence intensity (a.u.)
12,CGGGCGGGGCGGGGCGGGTTCGCTCGTCGGATGTGTGGATCGGAGTCACCTAGTGCAG,4670 fluorescence intensity (a.u.)
13,AACTTAGATTAGCCAGTATATATTTGTATATTTTGGAAATCGGAGTCACCTAGTGCAG,6360 fluorescence intensity (a.u.)
14,ATATATATATATATATATATATATATATATGTGTGTGTGTCGGAGTCACCTAGTGCAG,15700 fluorescence intensity (a.u.)
15,ATAGATTTTGACATTTTACATCAATAGTTTGGTCACTTGTCGGAGTCACCTAGTGCAG,12100 fluorescence intensity (a.u.)
16,GCGGCGATCGATCAATCAGAAACCGGCCGGGTATATATAGCGGAGTCACCTAGTGCAG,4020 fluorescence intensity (a.u.)
17,AGATAATTGACAAGGTACAATTTATGGCATTTTCCTTTTCCGGAGTCACCTAGTGCAG,26200 fluorescence intensity (a.u.)
18,AACCGGATAGACAGGTTTCACCACGGAAAATTAAACCTAGCGGAGTCACCTAGTGCAG,8800 fluorescence intensity (a.u.)
19,GGGGACATGATTACAAGATAGAAACCTTAACCAATATGGTCGGAGTCACCTAGTGCAG,16700 fluorescence intensity (a.u.)
20,ATGTTTTGAGCACCAATCACACACCAATAACGCCAACGTACGGAGTCACCTAGTGCAG,19500 fluorescence intensity (a.u.)
21,TTAATTTGTTATCCATCTTGGTCTTGGGCTTTTGGTGTCACGGAGTCACCTAGTGCAG,7330 fluorescence intensity (a.u.)
22,CCTCGTCTGACAGGTAGTCCCATCACGTGGGCCCCACCTCCGGAGTCACCTAGTGCAG,3570 fluorescence intensity (a.u.)
23,CTCCATGACAGGTTACTGATTAACTAAGCAAGGGTGTCTCCGGAGTCACCTAGTGCAG,28700 fluorescence intensity (a.u.)
